The whole screen tested about 48,000 compounds, of which about 450 (0.94%) were called active. The shares of active, inactive and inconclusive entries below differ from those in the screen. The call rests on the fitted dose curve; in most records, active means well fitted inhibition curve with a large enough effect; inconclusive means small, poorly fitted or top-dose-only effect; inactive means no such curve, though single readings can be large or run the other way. Potencies of inconclusive entries are doubtful fits and often do not repeat.
Assay: Primary qHTS for Identification of Small Molecule Inhibitors of Huntingtin Promoter Activity; further: nearly all actives have a fitted effect of over 50% in size
Conditions: HEK293 HTT promoter firefly luciferase reporter (activity 0% = vehicle and -100% = no light), 24 h; activity change, negative = inhibition: at 57.5 µM (top of the series)
Outline: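 Quantitative HTS used concentration series of up to 57.5 uM final on HEK293 luciferase reporter cells, 24 h at 37 degrees C. Readout was Dual-Glo firefly luminescence.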
Potency means the concentration at half of the fitted maximal effect; tags describe the fitted curve by direction and shape.

Compound | Potency | activity change, negative = inhibition
CCOC(=O)c1cc(-c2ccccc2)n(CCC(=O)Nc2cc(C)cc(C)c2)c1C | inconclusive: 31.6 µM [inhibitor, single point] | 
CN(Cc1ccccc1)C(=O)C1CCC(CNS(=O)(=O)c2ccc3c(c2)CCCC(=O)N3)CC1 (stereo not drawn) | inconclusive: 14.1 µM [inhibitor, partial curve] | 
CC(C)C(=O)Nc1ncc(-c2cc(C(F)F)nn2-c2c(Cl)cccc2Cl)s1 | inconclusive: 43.2 µM [inhibitor, single point] | 
Cc1ccc(N2CCN(C(=O)C3CCN(c4ncnc5c4nc4n5CCCCC4)CC3)CC2)c(C)c1 | inconclusive: 1.78 µM [inhibitor, full curve] | 
N#C/C(=C1/SC[C@@H](c2ccc(Cl)cc2Cl)S1)n1ccnc1 | inconclusive: 25.1 µM [inhibitor, single point] | 
Cc1ccc(C)c(Nc2cc(C(=O)NCCCN(C)C3CCCCC3)c3ccccc3n2)c1 | inconclusive: 39.8 µM [inhibitor, single point] | 
CCc1cccc(NC(=O)CSc2ncc3c(n2)-c2ccccc2N(CC)S3(=O)=O)c1 | inconclusive: 31.6 µM [inhibitor, partial curve, poor fit] | 
COc1ccc(NC(=O)C(C)n2nc(-c3cc(C)ccc3C)c3c(c2=O)CCCC3)cc1 (stereo not drawn) | inconclusive: 35.5 µM [inhibitor, single point] | 
Cc1ccc(C)c(-n2cc(-c3ccccc3)nc2SCC(=O)Nc2ccccc2)c1 | inconclusive: 20 µM [inhibitor, partial curve, poor fit] | 
CCn1cc2nc(SCC(=O)Nc3ccccc3F)n(Cc3ccc(C)cc3)c(=O)c2n1 | inconclusive: 20 µM [inhibitor, partial curve, poor fit] | 
Cc1ccc(C(=O)Nc2ccccc2C(=O)O)cc1S(=O)(=O)N1CCCCCC1 |  | inactive: 11.6%
CN1CCN(CCCNC(=O)Cn2c(-c3cccs3)cc3cc(Cl)ccc32)CC1 | inconclusive: 39.8 µM [inhibitor, single point] | 
COC(=O)C1=CO[C@@H](O)[C@@H]2C(CO)=CC[C@@H]12 |  | inactive: -9.5%
COc1cc(OC)c(NC(=O)C(NS(=O)(=O)c2cccc3nsnc23)c2ccccc2)cc1Cl (stereo not drawn) | inconclusive: 39.8 µM [inhibitor, partial curve, poor fit] | 
COc1ccc(-c2[nH]c(-c3ccccc3)nc2SCC(=O)Nc2ccc3c(c2)OCCO3)cc1 | inconclusive: 22.4 µM [inhibitor, single point] | 
CCOC(=O)c1cnc2c(ccc3ccccc32)c1Nc1ccccc1OC | inconclusive: 3.55 µM [inhibitor, partial curve, poor fit] | 
CC(C)Oc1ccc2c(=O)c(-c3ccccc3)coc2c1 | inactive | 
O=C(NCCc1csc(-c2ccc(F)cc2)n1)c1cccs1 | inconclusive: 39.8 µM [inhibitor, single point] | 
COc1ccc(-c2noc(CSc3nnc(Cc4ccccc4)n3-c3ccccc3)n2)cc1OC | inconclusive: 31.6 µM [inhibitor, partial curve, poor fit] | 
Cc1ccc2c(c1)c(=O)c(C(=O)c1ccc3c(c1)OCO3)cn2Cc1cccc(F)c1 | inconclusive: 28.2 µM [inhibitor, single point] | 

Compound | Potency | activity change, negative = inhibition
Cc1ccc(NC(=O)CSc2nc3ccccc3c3nc(CCc4c(C)n[nH]c4C)nn23)c(C)c1 |  | inactive: -19.1%
Cc1cc2cc3c(C)cc(=O)oc3c(C)c2o1 | inconclusive: 34.3 µM [inhibitor, single point] | 
CCOC(=O)c1cccc(NC(=O)c2cc(S(=O)(=O)N3CCCC(C)C3)cn2C)c1 (stereo not drawn) | inconclusive: 39.8 µM [inhibitor, partial curve, poor fit] | 
CCOC(=O)C1CCCN(C(=O)Cn2ncc3c(C)n(Cc4ccccc4F)c(C)c3c2=O)C1 (stereo not drawn) | inconclusive: 31.6 µM [inhibitor, partial curve, poor fit] | 
NC1(Cc2ccc(Cl)cc2)CCN(c2ncnc3[nH]ccc23)CC1 | inconclusive: 3.43 µM [inhibitor, full curve, poor fit] | 
COc1ccc(-c2cc(C(F)(F)F)nc(SCC(=O)N3CCCCC3C)n2)cc1OC (stereo not drawn) | inconclusive: 3.16 µM [inhibitor, full curve] | 
COc1ccc(CCNC(=O)c2cc3c(s2)-c2ccccc2OC3)cc1OC | inconclusive: 39.8 µM [inhibitor, single point] | 
Cc1ccc(C)c(-c2nnc(NC(=O)c3ccc4c(c3)OCCO4)o2)c1 |  | inactive: -28.4%
CC1=C(CO)C(=O)O[C@@H]([C@@H](C)[C@H]2CC[C@H]3[C@@H]4C[C@H]5O[C@]56[C@@H](O)C=CC(=O)[C@]6(C)[C@@H]4CC[C@]23C)C1 | inconclusive: 5.44 µM [inhibitor, full curve] | 
CCN(CC)C(=O)C1CN2CCc3cc(OC)c(OC)cc3C2CC1OC(C)=O (stereo not drawn) |  | inactive: 5.45%
Cc1ccc(OCC(=O)N(Cc2ccco2)Cc2ccco2)cc1C | inconclusive: 28.2 µM [inhibitor, single point] | 
CC1(C)[C@H]2CC[C@]3(C)[C@@H](C(=O)C=C4[C@@H]5C[C@@](C)(C(=O)O)CC[C@]5(C)CC[C@]43C)[C@@]2(C)CC[C@@H]1O |  | inactive: -3.1%
O=C(Cn1ccc2cc(S(=O)(=O)N3CCCCCC3)ccc21)NCCc1ccc(Cl)cc1 | inconclusive: 25.1 µM [inhibitor, single point] | 
CCc1ccc(NC(=O)C2CCCN(S(=O)(=O)c3c(C)noc3/C=C/N(C)C)C2)cc1 (stereo not drawn) | inconclusive: 20 µM [inhibitor, partial curve, poor fit] | 
Cc1ccc(-c2nnc(SCC(=O)NCc3ccccc3)nc2-c2ccc(C)cc2)cc1 | inconclusive: 10 µM [inhibitor, partial curve, poor fit] | 
COc1ccccc1N1CCN(C(=O)c2cnc(N3CCCCC3)c3ccccc23)CC1 | inconclusive: 10 µM [inhibitor, partial curve] | 
CNS(=O)(=O)c1cc(-c2nnc(Nc3cc(C)ccc3C)c3ccccc23)ccc1C | inconclusive: 25.1 µM [inhibitor, partial curve, poor fit] | 
CCOC(=O)c1cnc2ccccc2c1Nc1cccc(OC)c1 | inconclusive: 39.8 µM [inhibitor, partial curve, poor fit] | 
Cc1cc(-c2ccc(C)c(S(=O)(=O)Nc3cccc(C#N)c3)c2)on1 | inconclusive: 22.4 µM [inhibitor, single point] | 
COc1ccc(/C=C/C(=O)Nc2ccc(Cl)c(Cl)c2)cc1 |  | inactive: -19.3%

Compound | Potency | activity change, negative = inhibition
O=C(COc1ccc(F)cc1)NCCc1nc2ccccc2[nH]1 |  | inactive: -7.09%
CCOC(=O)c1cc(-c2ccccc2)n(CCC(=O)Nc2nc3c(C)cccc3s2)c1C | inconclusive: 22.4 µM [inhibitor, partial curve] | 
CCOc1ccccc1CNC(=O)CCn1ccc2cc(S(=O)(=O)N3CCCCC3)ccc21 | inconclusive: 25.1 µM [inhibitor, single point] | 
Clc1ccc(C2(c3ccc(-c4cn[nH]c4)cc3)CCNCC2)cc1 | inconclusive: 21.7 µM [inhibitor, partial curve] | 
Cn1c(=O)c2sccc2n2c(CCCC(=O)Nc3ccc(Oc4ccc(Cl)cc4)cc3)nnc12 | active: 39.8 µM | 
CC(=O)N1c2c(cc(Br)cc2S(=O)(=O)N2CCN(c3ccccc3)CC2)CC1C (stereo not drawn) | inconclusive: 31.6 µM [inhibitor, partial curve, poor fit] | 
Cc1ccc(-c2cc3c(N4CCN(c5cc(C)ccc5C)CC4)nccn3n2)cc1 | inconclusive: 12.6 µM [inhibitor, partial curve] | 
CCOC(=O)c1ccc(NC(=O)COc2cccc3c(=O)n(C)ccc23)cc1 | inconclusive: 2 µM [inhibitor, partial curve, poor fit] | 
Cc1cc(Cl)ccc1OCC(=O)N1CCC(c2nc3ccccc3o2)CC1 | inconclusive: 25.1 µM [inhibitor, single point] | 
CCOC(=O)c1ccccc1NC(=O)NCc1cccn1Cc1ccc(F)cc1 | inconclusive: 35.5 µM [inhibitor, single point] | 
O=C1CC(c2cccc(Cl)c2Cl)c2cc3c(cc2N1)OCCO3 (stereo not drawn) | inconclusive: 31.6 µM [inhibitor, partial curve] | 
O=C(CCS(=O)(=O)c1nc(-c2cccs2)cc(C(F)(F)F)n1)Nc1ccc(F)c(Cl)c1 | inconclusive: 22.4 µM [inhibitor, single point] | 
Cc1ccc(NC(=O)C2CCN(S(=O)(=O)c3ccc4c(c3)CCCN4C(=O)C3CCC3)CC2)cc1 | inconclusive: 28.2 µM [inhibitor, partial curve, poor fit] | 
Cc1cc(C)nc(NS(=O)(=O)c2ccc(NC(=O)c3nc(SC(C)C)ncc3Cl)cc2)n1 | inconclusive: 39.8 µM [inhibitor, single point] | 
CN(C(=O)C1CCN(c2ncnc3c2nc2n3CCCCC2)CC1)c1ccccc1F | inconclusive: 3.55 µM [inhibitor, partial curve] | 
CCN(CC)c1ccc(NC(=O)CN2CCN(S(=O)(=O)c3cc(Cl)ccc3OC)CC2)cc1 | inconclusive: 31.6 µM [inhibitor, single point] | 
COc1ccc(NC(=O)CSc2nc(-c3ccccc3)[nH]c2-c2ccccc2)cc1OC | inconclusive: 35.5 µM [inhibitor, partial curve, poor fit] | 
Cc1oc(-c2ccc(C(=O)NCc3ccccc3F)cc2)nc1COc1ccccc1 | inconclusive: 28.2 µM [inhibitor, partial curve, poor fit] | 
